# Test results as given in the supplement of paper PMC8728848.
# This is one part of the list.
# B1: AT1G15820(2) (Arabidopsis thaliana), Q9LMQ2 (protein)
# chain: MAMAVSGAVLSGLGSSFLTGGKRGATALASGVGTGAQRVGRKTLIVAAAAAQPKKSWIPAVKGGGNFLDPEWLDGSLPGDFGFDPLGLGKDPAFLKWYREAELIHGRWAMAAVLGIFVGQAWSGVAWFEAGAQPDAIAPFSFGSLLGTQLLLMGWVESKRWVDFFNPDSQSVEWATPWSKTAENFANYTGDQGYPGGRFFDPLGLAGKNRDGVYEPDFEKLERLKLAEIKHSRLAMVAMLIFYFEAGQGKTPLGALGL
# Columns and labels:
# Test in all cases: glycan array binding signal (z-score within array); higher = stronger binding
# Details in all cases: glycan notation: IUPAC condensed, linker removed
# [1] = target: Fuc(a1-2)[Gal(a1-3)]Gal(b1-4)[Fuc(a1-3)]GlcNAc(b1-3)GalNAc
# Procedure, shortened: (§1)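 Columns mapping to the same glycan were averaged after glycan names were converted to IUPAC-condensed notation. The data come from 3228 arrays in the Consortium for Functional Glycomics database, limited to those with an available protein sequence. Binding is reported as a within-array Z-score averaged across arrays of one protein sequence and across linkers.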
# [2] = target: Fuc(a1-2)[Gal(a1-4)]Gal(b1-4)GlcNAc
# Procedure, shortened: as §1
# [3] = target: Fuc(a1-2)[GalNAc(a1-3)]Gal
# Procedure, shortened: as §1
# [4] = target: Fuc(a1-2)[GalNAc(a1-3)]Gal(b1-3)GalNAc(a1-3)[Fuc(a1-2)]Gal(b1-4)GlcNAc
# Procedure, shortened: as §1
# [5] = target: Fuc(a1-2)[GalNAc(a1-3)]Gal(b1-3)GalNAc(b1-3)Gal(a1-4)Gal(b1-4)Glc
# Procedure, shortened: as §1
# [6] = target: Fuc(a1-2)[GalNAc(a1-3)]Gal(b1-3)GlcNAc
# Procedure, shortened: as §1
# [7] = target: Fuc(a1-2)[GalNAc(a1-3)]Gal(b1-3)GlcNAc(b1-2)Man(a1-3)[Fuc(a1-2)[GalNAc(a1-3)]Gal(b1-3)GlcNAc(b1-2)Man(a1-6)]Man(b1-4)GlcNAc(b1-4)GlcNAc
# Procedure, shortened: as §1
# [8] = target: Fuc(a1-2)[GalNAc(a1-3)]Gal(b1-3)GlcNAc(b1-2)Man(a1-3)[Fuc(a1-2)[GalNAc(a1-3)]Gal(b1-3)GlcNAc(b1-2)Man(a1-6)]Man(b1-4)GlcNAc(b1-4)[Fuc(a1-6)]GlcNAc
# Procedure, shortened: as §1
# [9] = target: Fuc(a1-2)[GalNAc(a1-3)]Gal(b1-3)GlcNAc(b1-3)GalNAc
# Procedure, shortened: as §1
# [10] = target: Fuc(a1-2)[GalNAc(a1-3)]Gal(b1-3)GlcNAc(b1-6)GalNAc
# Procedure, shortened: as §1
# [11] = target: Fuc(a1-2)[GalNAc(a1-3)]Gal(b1-4)Glc
# Procedure, shortened: as §1
# [12] = target: Fuc(a1-2)[GalNAc(a1-3)]Gal(b1-4)GlcNAc
# Procedure, shortened: as §1
# [13] = target: Fuc(a1-2)[GalNAc(a1-3)]Gal(b1-4)GlcNAc(b1-2)Man
# Procedure, shortened: as §1
# [14] = target: Fuc(a1-2)[GalNAc(a1-3)]Gal(b1-4)GlcNAc(b1-2)Man(a1-3)[Fuc(a1-2)[GalNAc(a1-3)]Gal(b1-4)GlcNAc(b1-2)Man(a1-6)]Man(b1-4)GlcNAc(b1-4)GlcNAc
# Procedure, shortened: as §1
# [15] = target: Fuc(a1-2)[GalNAc(a1-3)]Gal(b1-4)GlcNAc(b1-2)Man(a1-3)[Fuc(a1-2)[GalNAc(a1-3)]Gal(b1-4)GlcNAc(b1-2)Man(a1-6)]Man(b1-4)GlcNAc(b1-4)[Fuc(a1-6)]GlcNAc
# Procedure, shortened: as §1
# [16] = target: Fuc(a1-2)[GalNAc(a1-3)]Gal(b1-4)GlcNAc(b1-3)Gal(b1-4)GlcNAc
# Procedure, shortened: as §1
# [17] = target: Fuc(a1-2)[GalNAc(a1-3)]Gal(b1-4)GlcNAc(b1-3)Gal(b1-4)GlcNAc(b1-3)Gal(b1-4)GlcNAc
# Procedure, shortened: as §1
# [18] = target: Fuc(a1-2)[GalNAc(a1-3)]Gal(b1-4)GlcNAc(b1-3)GalNAc
# Procedure, shortened: as §1
# [19] = target: Fuc(a1-2)[GalNAc(a1-3)]Gal(b1-4)GlcNAc(b1-3)[Fuc(a1-2)[GalNAc(a1-3)]Gal(b1-4)GlcNAc(b1-6)]GalNAc
# Procedure, shortened: as §1
# [20] = target: Fuc(a1-2)[GalNAc(a1-3)]Gal(b1-4)GlcNAc(b1-6)GalNAc
# Procedure, shortened: as §1
# [21] = target: Fuc(a1-2)[GalNAc(a1-3)]Gal(b1-4)[Fuc(a1-3)]GlcNAc
# Procedure, shortened: as §1
# [22] = target: Fuc(a1-2)[GalNAc(a1-3)]Gal(b1-4)[Fuc(a1-3)]GlcNAc(b1-3)GalNAc
# Procedure, shortened: as §1
# [23] = target: Fuc(a1-2)[GalNAc(a1-4)]Gal(b1-4)GlcNAc
# Procedure, shortened: as §1
# [24] = target: Fuc(a1-2)[GalNAc(b1-3)]Gal
# Procedure, shortened: as §1
# [25] = target: Fuc(a1-3)GlcNAc
# Procedure, shortened: as §1
# [26] = target: Fuc(a1-3)[Gal(b1-4)]Glc6S
# Procedure, shortened: as §1
# [27] = target: Fuc(a1-3)[Gal(b1-4)]GlcNAc
# Procedure, shortened: as §1
# [28] = target: Fuc(a1-3)[Gal(b1-4)]GlcNAc(b1-2)Man
# Procedure, shortened: as §1
# [29] = target: Fuc(a1-3)[Gal(b1-4)]GlcNAc(b1-2)Man(a1-3)[Fuc(a1-3)[Gal(b1-4)]GlcNAc(b1-2)Man(a1-6)]Man(b1-4)GlcNAc(b1-4)GlcNAc
# Procedure, shortened: as §1
# [30] = target: Fuc(a1-3)[Gal(b1-4)]GlcNAc(b1-2)Man(a1-3)[Fuc(a1-3)[Gal(b1-4)]GlcNAc(b1-2)Man(a1-6)]Man(b1-4)GlcNAc(b1-4)[Fuc(a1-6)]GlcNAc
# Procedure, shortened: as §1
# [31] = target: Fuc(a1-3)[Gal(b1-4)]GlcNAc(b1-3)Gal(b1-3)[Fuc(a1-4)]GlcNAc
# Procedure, shortened: as §1
# [32] = target: Fuc(a1-3)[Gal(b1-4)]GlcNAc(b1-3)Gal(b1-4)[Fuc(a1-3)]GlcNAc
# Procedure, shortened: as §1
# [33] = target: Fuc(a1-3)[Gal(b1-4)]GlcNAc(b1-3)Gal(b1-4)[Fuc(a1-3)]GlcNAc(b1-3)Gal(b1-4)[Fuc(a1-3)]GlcNAc
# Procedure, shortened: as §1
# [34] = target: Fuc(a1-3)[Gal(b1-4)]GlcNAc(b1-3)GalNAc
# Procedure, shortened: as §1
# [35] = target: Fuc(a1-3)[Gal(b1-4)]GlcNAc(b1-6)GalNAc
# Procedure, shortened: as §1
# [36] = target: Fuc(a1-3)[Gal(b1-4)]GlcNAc(b1-6)[Gal(b1-3)GlcNAc(b1-3)]Gal(b1-4)Glc
# Procedure, shortened: as §1
# [37] = target: Fuc(a1-3)[Gal(b1-4)]GlcNAc6S
# Procedure, shortened: as §1
# [38] = target: Fuc(a1-3)[Gal3S(b1-4)]Glc
# Procedure, shortened: as §1
binder,measurement,setting,value
B1,glycan array binding signal (z-score),[1],-0.093
same,glycan array binding signal (z-score),[2],1.93
same,glycan array binding signal (z-score),[3],-0.193
same,glycan array binding signal (z-score),[4],-0.559
same,glycan array binding signal (z-score),[5],-0.087
same,glycan array binding signal (z-score),[6],-0.002
same,glycan array binding signal (z-score),[7],-0.269
same,glycan array binding signal (z-score),[8],-0.23
same,glycan array binding signal (z-score),[9],-0.086
same,glycan array binding signal (z-score),[10],-0.457
same,glycan array binding signal (z-score),[11],-0.507
same,glycan array binding signal (z-score),[12],-0.215
same,glycan array binding signal (z-score),[13],-0.387
same,glycan array binding signal (z-score),[14],-0.191
same,glycan array binding signal (z-score),[15],0.474
same,glycan array binding signal (z-score),[16],0.139
same,glycan array binding signal (z-score),[17],-0.057
same,glycan array binding signal (z-score),[18],-0.289
same,glycan array binding signal (z-score),[19],0.206
same,glycan array binding signal (z-score),[20],-0.421
same,glycan array binding signal (z-score),[21],-0.218
same,glycan array binding signal (z-score),[22],6.82
same,glycan array binding signal (z-score),[23],-0.23
same,glycan array binding signal (z-score),[24],-0.28
same,glycan array binding signal (z-score),[25],-0.399
same,glycan array binding signal (z-score),[26],-0.283
same,glycan array binding signal (z-score),[27],-0.172
same,glycan array binding signal (z-score),[28],-0.204
same,glycan array binding signal (z-score),[29],-0.309
same,glycan array binding signal (z-score),[30],-0.44
same,glycan array binding signal (z-score),[31],0.119
same,glycan array binding signal (z-score),[32],-0.308
same,glycan array binding signal (z-score),[33],0.986
same,glycan array binding signal (z-score),[34],-0.48
same,glycan array binding signal (z-score),[35],0.302
same,glycan array binding signal (z-score),[36],-0.49
same,glycan array binding signal (z-score),[37],0.079
same,glycan array binding signal (z-score),[38],-0.097
